According to PubChem BioAssay AID686971 (National Center for Advancing Translational Sciences (NCATS), 2013):
Hit rate of the full screen: of about 360,000 compounds, about 7,500 (2.1%) were called active. The shares of active, inactive and inconclusive entries below differ from those in the screen. The call rests on the fitted dose curve; in most records, active means well fitted cell-killing curve with a large enough effect; inconclusive means small, poorly fitted or top-dose-only effect, or effect the other way, or another doubt; inactive means no such curve, though single readings can be large or run the other way. No potency is given beside an inconclusive call; the fits are too rough.

experiment: qHTS for induction of synthetic lethality in tumor cells producing 2HG: qHTS for the HT-1080-IDH1KD cell line; conditions: HT-1080 IDH1 knockdown viability, ATP luminescence, 48 h; activity, negative = toxicity: at 46.1 µM (top of the series) unless noted;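 on activity, negative = toxicity: 0% = DMSO wells and -100% = cell-free medium wells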
In short: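 After a 2 h attachment period, IDH1KD HT-1080 cells took pin-transferred compound for 48 h at 37 °C; ATP-based luminescence after 10 min room-temperature reagent incubation reported viability.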
Potency means the concentration at half of the fitted maximal effect; tags describe the fitted curve by direction and shape.

| SMILES | Potency | activity, negative = toxicity |
| --- | --- | --- |
| CCn1cc(CNCc2ccc(OCC(O)CN(C)Cc3ccccc3)cc2)cn1 (stereo unspecified) | inconclusive [cytotoxic, single point] |  |
| CCCOc1ccc(F)cc1-c1cc(C(=O)Nc2ccc(C)c(NS(C)(=O)=O)c2)[nH]n1 | inconclusive [cytotoxic, single point] |  |
| COc1cc([N+](=O)[O-])cc(/C=N/NC(=O)C(C)Nc2cccc3ccccc23)c1O (stereo unspecified) | active: 18.4 µM |  |
| CCN1C(=O)[C@H]2[C@H]3CN=C(SCc4ccc(Cl)cc4)N3[C@@](Cc3ccccc3)(C(=O)OC)[C@H]2C1=O | inconclusive [cytotoxic, single point] |  |
| COc1ccc(S(=O)(=O)NCc2cccnc2)cc1Br | active: 16.4 µM |  |
| CSc1ccccc1OCc1cc(C(=O)NC(C)c2cnn(C)c2)no1 (stereo unspecified) | inactive |  |
| O=C(/C=C/c1ccc(Br)cc1)c1ccc(NC(=O)c2ccco2)cc1 | inconclusive [cytotoxic, single point] |  |
| COc1ccc(-c2sc3cc4c(cc3c2C#CC2(N)CCCCC2)OCO4)cc1 | inconclusive [cytotoxic, single point] |  |
| COc1ccc2nc3c(cc2c1)c(NC(=O)c1cccs1)nn3CC(C)C | active: 13 µM |  |
| CC(C)C1N(c2ccccc2)C(N)=C(C#N)C1(C#N)C#N (stereo unspecified) | inactive |  |
| COc1ccc(C(=O)OCC(=O)NCC2CCCO2)c(F)c1 (stereo unspecified) | inactive |  |
| COCCNc1nc(NCc2ccccc2OC)c2sccc2n1 | inconclusive [cytotoxic, partial curve] |  |
| CN(CC(=O)Nc1cccc2ccccc12)C(=O)c1ccc(F)cc1F | inactive |  |
| C[N+](C)(C)CCC(=O)N1C/C(=C/c2ccccc2)C(=O)/C(=C\c2ccccc2)C1 | active: 4.11 µM |  |
| CN(Cc1ccccc1)C(=O)c1ccc(NC(=O)Cc2ccc(NC(=O)C3CCN(C(=O)C4CCCCC4)CC3)cc2)cc1 | inconclusive [cytotoxic, single point] |  |
| CCOC(=O)C1CCCN(C(=O)c2ccc(C)c(F)c2)CC1 (stereo unspecified) | inactive |  |
| O=C(NCc1ccccc1Cl)c1csc([C@@H]2C[C@H](O)[C@@H](CO)O2)n1 | inconclusive [rising, partial curve, poor fit] |  |
| COC(=O)c1cc(NC(=O)c2ccc(OC)cc2)c(=O)oc1C | inconclusive [rising, partial curve] |  |
| COc1ccc(NC(=O)C2Cc3c(-c4ccc(Cl)cc4)ccnc3O2)cc1OC (stereo unspecified) | inconclusive [cytotoxic, partial curve] |  |
| CCN(C(=O)CSc1nnc(-c2ccco2)n1CC)c1c(N)n(Cc2ccccc2)c(=O)[nH]c1=O | inactive |  |
| CC(C)(C)c1ccc(-c2cc(-c3ccccc3O)[nH]n2)cc1 | active: 14.6 µM |  |
| Nc1c(SCCC(=O)O)ccc2c1C(=O)c1ccccc1C2=O | inconclusive [cytotoxic, single point] |  |
| O=C(NCC1CCCO1)C1CC(=O)N(C2CCCC2)C1 (stereo unspecified) | inactive |  |

| SMILES | Potency | activity, negative = toxicity |
| --- | --- | --- |
| COc1ccc(C2c3ccc4ccccc4c3Oc3ncn(CCCN(C)C)c(=N)c32)cc1 (stereo unspecified) | inconclusive [cytotoxic, single point] |  |
| CCc1ccc2c(c1)c1nnc(NN)nc1n2CC | inactive |  |
| O=C(CCC(=O)c1ccc(Cl)cc1)OCc1nc2ccsc2c(=O)[nH]1 | inactive |  |
| CCc1c(C)nc2cc(-c3cccc(Br)c3)[nH]n2c1=O | inactive |  |
| Cc1cc(C(=O)N/N=C/c2ccc([N+](=O)[O-])s2)c2ccccc2n1 | inconclusive [cytotoxic, single point] |  |
| CC(=O)C1CCC2C3CCC4CC(=O)CCC4(C)C3C=CC12C (stereo unspecified) | inactive |  |
| CCOC(=O)c1c(C)[nH]c(C(=O)OCC(=O)Nc2cc(Cl)ccc2OC)c1C |  | inconclusive: -23.1% [cytotoxic] |
| OCCSc1nc(-c2cccnc2)nc2ccccc12 | inconclusive [cytotoxic, single point] |  |
| O=C(c1ccc(Cl)c(S(=O)(=O)NCc2ccccc2)c1)N1CCN(c2ccccn2)CC1 | inconclusive [cytotoxic, single point] |  |
| CCN(CC)S(=O)(=O)c1ccc(C(=O)N2CCCCC2)cc1 | inactive |  |
| CN1CCN(c2ccc(-c3cc(NC=O)c4ncc(-c5ccc(F)c(Cl)c5)n4c3)cc2)CC1 | inconclusive [cytotoxic, single point] |  |
| CC(/C=N/N1CCN(c2ccccc2)CC1)=C\c1ccco1 | inconclusive [cytotoxic, single point] |  |
| CCCCCc1ccc(OCCCC[n+]2ccc(C)cc2)c(CCCCC)c1 | active: 6.51 µM |  |
| CCOC(=O)c1ccc(NC(=O)CC2S/C(=N/N=C/c3c[nH]c4ccccc34)NC2=O)cc1 (stereo unspecified) | inconclusive [cytotoxic, single point] |  |
| COc1ccccc1N1CCN(C/C(C)=C/c2ccccc2)CC1 | inconclusive [cytotoxic, single point] |  |
| CC1(C(=O)Nc2cccc(C(F)(F)F)c2)Cc2c(-c3ccccc3)ccnc2O1 (stereo unspecified) | inconclusive [cytotoxic, single point] |  |
| COc1ccc(CC(=O)Nc2ccc(/C(C)=N/NC(=O)c3cccc([N+](=O)[O-])c3)cc2)cc1 | inconclusive [cytotoxic, partial curve] |  |
| S=c1[nH]c2cc(Cl)ccc2s1 | inconclusive [cytotoxic, single point] |  |
| O=C(N/N=C/c1cn(Cc2ccccc2)c2ccccc12)c1cc(O)cc(O)c1 |  | inconclusive: -32.7% [cytotoxic] |
| CC(=O)c1ccc(NC(=O)c2ccc(CSc3ccccc3)o2)cc1 | inactive |  |
| O=C(Nc1ccc(-c2noc(-c3cccs3)n2)cc1)c1cccnc1 | inconclusive [cytotoxic, single point] |  |
| NC(=O)CSc1nnc2n(-c3ccccc3)c(=O)c3c4c(sc3n12)CCCCC4 | inactive |  |
| O=C(Cn1ccc2ccccc2c1=O)NCCC(=O)Nc1cccc(Cl)c1 | inconclusive [cytotoxic, single point] |  |
